Hit rate of the full screen: of about 220,000 compounds, about 16,000 (7.3%) were called active. Inconclusive means that the source gave no clear call. Such entries were picked first, then a sample of the others. Calls come from the whole dose curve; as a rule, active = well fitted inhibition curve with a large enough effect (not every such curve was filed as active); inconclusive = small, poorly fitted or top-dose-only effect, or another doubt; inactive = no such curve, though single readings can be large or run the other way. Potencies of inconclusive entries are left out as doubtful fits.
target: Aldehyde dehydrogenase 1A1 (Homo sapiens) (UniProt P00352); assay: qHTS Assay for Inhibitors of Aldehyde Dehydrogenase 1 (ALDH1A1); conditions: Purified ALDH1A1, NADH fluorescence, propionaldehyde substrate; series mostly up to 75.3 µM
Chain of UniProt P00352 (P00352 whole entry, looked up): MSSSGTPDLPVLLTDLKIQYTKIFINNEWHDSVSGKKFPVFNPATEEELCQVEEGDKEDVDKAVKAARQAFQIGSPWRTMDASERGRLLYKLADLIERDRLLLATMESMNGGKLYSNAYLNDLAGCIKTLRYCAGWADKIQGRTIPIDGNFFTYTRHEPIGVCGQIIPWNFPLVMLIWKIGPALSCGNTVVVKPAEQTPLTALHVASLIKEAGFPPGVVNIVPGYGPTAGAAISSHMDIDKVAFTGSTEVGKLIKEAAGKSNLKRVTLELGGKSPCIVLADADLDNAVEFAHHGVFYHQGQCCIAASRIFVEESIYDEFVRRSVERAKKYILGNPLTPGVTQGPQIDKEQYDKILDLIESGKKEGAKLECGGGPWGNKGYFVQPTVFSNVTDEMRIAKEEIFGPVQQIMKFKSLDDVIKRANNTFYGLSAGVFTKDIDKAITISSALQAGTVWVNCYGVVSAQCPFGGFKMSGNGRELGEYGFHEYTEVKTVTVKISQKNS
Potency is the fitted concentration of half-maximal effect; tags give direction and shape of the fitted curve.

Structure (SMILES) | Potency
CC1CN(C(=O)/C=C/c2ccc3c(c2)OCO3)CC(C)O1 (configuration not stated) | inconclusive [inhibitor, single point]
CCn1cc(C(=O)NCc2ccccc2OC)c(=O)c2ccc(C)nc21 | inconclusive [inhibitor, partial curve]
CNc1ncnc2ccc(-c3ccccc3CN(C)C)cc12 | inconclusive [inhibitor, single point]
CCCC(=O)N1CCN(c2ccc([N+](=O)[O-])c(NC(C)c3ccccc3)c2)CC1 (configuration not stated) | inconclusive [inhibitor, partial curve]
O=C(N/C(=C\c1ccccc1Cl)C(=O)N1CCOCC1)c1ccc([N+](=O)[O-])cc1 | inconclusive [inhibitor, single point]
COc1cccc(/C=C/C(=O)OCC(=O)Nc2cc(S(=O)(=O)N3CCOCC3)ccc2C)c1 | inconclusive [inhibitor, single point]
Cc1cc(O)cc(O)c1C(=O)OC1(C)C(=O)C=C2C=C(/C=C/C(=O)O)OC=C2C1=O (configuration not stated) | inconclusive [inhibitor, single point]
C=CCOC(=O)CCC(=O)Nc1cc(OC)nc(OC)n1 | inconclusive [inhibitor, single point]
CC(=O)Nc1ccc(OCC(=O)NC(C)C(C)C)cc1 (configuration not stated) | inactive
COc1ccc(-n2c(=O)c(-c3cccc(C#N)c3)nc3cnc(N4CCNCC4)nc32)cc1 | inactive
c1ccc(-n2cnc3cc(NCc4cccs4)ccc32)cc1 | inconclusive [inhibitor, single point]
CC(=O)C1=C(c2ccccc2)OC(N)=C(C#N)C1c1ccccc1F (configuration not stated) | inconclusive [inhibitor, single point]
CC(=O)NCCc1cc2cc(C)c(C)cc2[nH]c1=O | inconclusive [inhibitor, single point]
COc1ccc(CCN=Cc2c(C)[nH]n(-c3ccc([N+](=O)[O-])cc3)c2=O)cc1OC | inactive
CN1CCN(CCCNC(=O)c2cc3c(=O)oc4ccccc4c3s2)CC1 | inconclusive [inhibitor, single point]
COC(=O)c1[nH]c2cc(OC)ccc2c1N | inconclusive [inhibitor, single point]
O=C(Cn1nnc(-c2ccccc2Cl)n1)N1CCN(S(=O)(=O)c2ccc(Cl)cc2)CC1 | inconclusive [inhibitor, partial curve]
COc1ccc(-c2coc3cc(O)ccc3c2=O)c(OC)c1O | inconclusive [inhibitor, partial curve]
Clc1ccc(-c2cn3cccnc3n2)cc1 | inconclusive [inhibitor, partial curve]
Nc1nnnn1CC(=O)N/N=C/c1cc([N+](=O)[O-])ccc1O | inconclusive [inhibitor, single point]
N#CC1=C(N)SC(N)=C(C#N)C1C1CC=CCC1 (configuration not stated) | inconclusive [inhibitor, single point]

Structure (SMILES) | Potency
O=C(NCCNC(=O)C(c1ccccc1)c1ccccc1)c1ccco1 | active: 39.8 µM
O=C(NC(=S)Nc1ccccc1O)c1ccc(Cl)cc1Cl | inconclusive [inhibitor, single point]
CCOn1c(=O)c(-c2cc3ccccc3o2)[n+]([O-])c2ccccc21 | inconclusive [inhibitor, single point]
Cc1cc(C)c2nc3nc(C)cc(C)c3c(N)c2c1 | inconclusive [inhibitor, single point]
COc1cc(C2CC(=O)n3c(nc4ccccc43)S2)cc(OC)c1OC (configuration not stated) | inconclusive [inhibitor, single point]
COc1ccc(CC(NC(C)=O)C(=O)NC2CCN(c3nc(C)cc(C)c3C#N)CC2)c(OC)c1 (configuration not stated) | inconclusive [inhibitor, single point]
O=C(NCc1ccco1)c1cccc(Nc2nc3ccc(Br)cc3[nH]2)c1 | inconclusive [inhibitor, single point]
CCCN(CCC)CC(O)CN(c1cc([N+](=O)[O-])ccc1OC)S(=O)(=O)c1ccccc1 (configuration not stated) | inconclusive [inhibitor, single point]
COc1ccccc1CNc1nc(-c2ccccc2CN(C)C)nc2ccccc12 | inactive
O=C(CSc1nnc(-c2ccccc2)c(-c2ccccc2)n1)N1CCc2ccccc21 | inconclusive [inhibitor, single point]
O=C(O)CCC(=O)N1CCc2cc(S(=O)(=O)N(CCc3ccccc3)Cc3ccccc3)ccc21 | inconclusive [inhibitor, single point]
O=C(NCc1nnc(SCC(=O)N2CCOCC2)o1)c1ccccc1F | inactive
COc1nc(NC23CC4CC(CC(C4)C2)C3)nc(OC)n1 | active: 25.1 µM
CNC(=S)Nc1cccc([N+](=O)[O-])c1 | inconclusive [inhibitor, single point]
COc1ccccc1C(=O)ON=C1c2ccccc2-c2ccccc21 | inconclusive [inhibitor, full curve, poor fit]
CC(=C/c1ccco1)/C=N/NC(=O)c1nnn(-c2nonc2N)c1CN(C)C | inactive
CCOc1cc(/C=C2\SC(=O)N(CC(=O)Nc3ccccc3F)C2=O)cc([N+](=O)[O-])c1O | inconclusive [inhibitor, single point]
CCOC(=O)c1nn(-c2ccccc2C)c2nc(-c3ccc(Cl)cc3)c(C#N)c(=O)n12 | inconclusive [inhibitor, single point]
CCOc1cc(C(=O)CCC(=O)OCC(=O)N2c3ccccc3NC(=O)C2(C)C)ccc1O | active: 14.1 µM
NS(=O)(=O)c1ccc(NC(=O)c2cc(-c3cccs3)nc3ccccc23)cc1 | inconclusive [inhibitor, single point]
COc1ccc(C(=O)/C=C/Nc2ccc(S(=O)(=O)Nc3ncccn3)cc2)cc1 | inconclusive [inhibitor, partial curve]
